Consider one molecule from patent US20110166106A1, “ARTEMISININ AND DERIVATIVES THEREOF AS ANTIVIRALS” (priority 2008, published 2011).

Assay [1] has as its system Epstein-Barr virus (EBV, strain B95-8). The assay is described as follows: Indirect immunofluorescence IC50 determination in EBV-infected Raji cells. As to conditions: read-out: IC50 for EBV, 3 days.
Assay [2] concerns human influenza A virus (Influenza A, strain WSN/33). The experiment in a line: Standard plaque reduction assay, influenza A. As to conditions: strain WSN/33, plaque reduction. (In general: Plaques are areas of infected cells; plaque reduction assays count them against a control.)

As for `C[C@H]1[C@H](OC(=O)CCC(=O)O)O[C@@H]2O[C@@]3(C)CC[C@H]4[C@H](C)CC[C@@H]1[C@@]24OO3` [ART, artesunate], the IC50 (in general, the concentration that gives 50% inhibition) in assay [1] came out at 7.21 ± 2.25 µM. Also, the “ART sensitivity of influenza A virus” value in assay [2] is “not inhibited”.
